# Test results reported in paper PMC4336329 (PLoS ONE, 2015).
# In all, about 310,000 compounds went through this assay and about 14,000 (4.5%) showed an effect of 50% or more. The effect is printed as a negative number. This is one part of the list.
# Target: human ether-à-go-go-related gene (hERG) potassium channel (human, UniProt Q12809)
# Experiment: primary screen, population patch clamp on CHO cells stably expressing hERG
# 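Further: peak tail current of the secondary pulse compared with the same well before compound.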
# Chain of human ether-à-go-go-related gene (hERG) potassium channel (Q12809 whole entry, looked up): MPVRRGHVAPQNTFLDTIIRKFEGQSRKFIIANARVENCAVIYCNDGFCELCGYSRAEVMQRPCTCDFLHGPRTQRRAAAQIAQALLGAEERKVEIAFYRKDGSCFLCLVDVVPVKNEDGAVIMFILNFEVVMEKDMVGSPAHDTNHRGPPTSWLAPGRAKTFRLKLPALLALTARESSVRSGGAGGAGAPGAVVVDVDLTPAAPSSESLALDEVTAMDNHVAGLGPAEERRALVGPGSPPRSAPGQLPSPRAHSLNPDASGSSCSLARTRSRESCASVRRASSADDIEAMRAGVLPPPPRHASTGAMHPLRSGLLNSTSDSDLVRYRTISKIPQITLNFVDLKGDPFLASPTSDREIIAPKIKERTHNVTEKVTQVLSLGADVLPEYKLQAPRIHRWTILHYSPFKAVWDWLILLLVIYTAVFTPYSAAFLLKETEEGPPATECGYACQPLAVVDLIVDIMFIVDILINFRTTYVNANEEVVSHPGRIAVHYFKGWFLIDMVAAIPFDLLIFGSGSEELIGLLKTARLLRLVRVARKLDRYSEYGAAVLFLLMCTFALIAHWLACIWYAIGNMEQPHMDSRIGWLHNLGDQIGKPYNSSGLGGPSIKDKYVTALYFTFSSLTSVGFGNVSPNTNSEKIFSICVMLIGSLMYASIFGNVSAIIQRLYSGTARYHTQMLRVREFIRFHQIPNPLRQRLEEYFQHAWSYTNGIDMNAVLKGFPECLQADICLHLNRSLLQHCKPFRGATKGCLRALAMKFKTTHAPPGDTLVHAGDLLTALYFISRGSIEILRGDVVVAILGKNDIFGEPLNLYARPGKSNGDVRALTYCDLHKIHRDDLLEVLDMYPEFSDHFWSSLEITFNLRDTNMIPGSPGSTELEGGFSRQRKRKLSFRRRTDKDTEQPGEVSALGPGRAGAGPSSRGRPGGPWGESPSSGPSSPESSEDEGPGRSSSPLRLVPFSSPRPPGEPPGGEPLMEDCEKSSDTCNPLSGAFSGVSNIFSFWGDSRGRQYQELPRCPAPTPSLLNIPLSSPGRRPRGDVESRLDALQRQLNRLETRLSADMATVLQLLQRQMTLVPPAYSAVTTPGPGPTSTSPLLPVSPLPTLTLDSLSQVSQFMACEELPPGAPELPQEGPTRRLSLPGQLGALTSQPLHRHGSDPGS
row,SMILES,"hERG current change (%, negative = inhibition) at 10uM [%]"
1,CN1CCC(N(C)C(=S)Nc2ccc(F)cc2)CC1,21.3
2,Cc1ccc(NC(=S)NNC(=O)Cn2nc([N+](=O)[O-])cc2C)cc1,22.1
3,Cc1ccc(C(=O)CSc2ccccc2C(=O)O)cc1,16.9
4,CC1=CC(=C2C(=O)NC(=O)NC2=O)C=C(C(F)(F)F)N1Cc1ccccc1,-3.33
5,CC(C)n1cc(CN2CCN(C)C(CCO)C2)c2ccccc21 (centres unmarked),17.4
6,COc1ccc(S(=O)(=O)NCC(=O)N(CC(=O)NCC2CCCO2)Cc2ccc(F)cc2)cc1 (centres unmarked),-2.05
7,COc1ccc([N+](=O)[O-])cc1NC(=O)CCN1CCOCC1,-0.574
8,CC(=O)Nc1cc[n+](C(C)C(=O)c2ccccc2)cc1.[Cl-] (centres unmarked),7.29
9,Cc1cc(Nc2cccc(C(=O)O)c2)n2ncnc2n1,19.7
10,COC(=O)c1ccc(C)c(NC(=O)CN2C(=O)c3ccccc3S2(=O)=O)c1,6.46
11,Cc1cccnc1NS(=O)(=O)c1cccc([N+](=O)[O-])c1,6.1
12,Cc1ccc(C2C3=C(CCCC3=O)N=C3c4ccccc4C(=O)C32)cc1 (centres unmarked),-10.2
13,O=c1c(-c2nc3ccccc3s2)cccn1Cc1ccc(Cl)cc1,0.362
14,COc1cc(/C=N/NC(=O)c2ccc(O)cc2)ccc1OCC(=O)Nc1cccc([N+](=O)[O-])c1,10.3
15,CN(C)/N=C/c1ccc(Sc2ccccc2[N+](=O)[O-])o1,-5.83
16,CCCCCCn1c(SCC(=O)Nc2cc(C)on2)nc2ccccc2c1=O,6.53
17,COc1cc(C(=O)NCC(=O)OCc2cc(=O)oc3c(C)c(C)ccc23)cc(OC)c1OC,-9.1
18,COc1ccccc1CC(NC(C)=O)C(=O)NC1CCN(C(=O)Nc2ccccc2C)CC1 (centres unmarked),2.45
19,O=C(Cn1cc([N+](=O)[O-])cn1)N1CCCc2ccccc21,-6.61
20,CCOC(=O)c1cc(C)nc(SC)c1C#N,6.49
21,COC(=O)c1ccc(COc2cc(C)ccc2C)o1,15.9
22,CCOc1ccc(S(=O)(=O)NCCOC)cc1C,14.7
23,O=C(NC(=S)Nc1ccccc1O)c1ccc(-c2ccc(Cl)cc2)o1,17.3

row,SMILES,"hERG current change (%, negative = inhibition) at 10uM [%]"
1,CCOc1ccc2nc(NC(=O)CN3CCC(n4nnc5cc(F)ccc54)CC3)sc2c1,-40.1
2,O=C(Cn1ccccc1=S)c1ccc(Cl)c(Cl)c1,-4.39
3,CC(=O)c1ccc(OCC(=O)N(C2CCCCC2)C2CCS(=O)(=O)C2)cc1 (centres unmarked),-2.18
4,CC(C)NC(NC(=O)Cc1ccccc1)C(Cl)(Cl)Cl (centres unmarked),18.8
5,Cn1nccc1C(=O)NC1CCCc2c1cnn2-c1ccccc1F (centres unmarked),18.9
6,CC(=O)OCc1c(-c2ccccc2)c2cc([N+](=O)[O-])ccc2n1C,12.8
7,Cc1ccc(-c2csc(N3CCC[C@@H]3C(=O)NCCn3c(C(F)(F)F)nc4ccccc43)n2)cc1,6.33
8,COc1ccc(S(=O)(=O)Nc2ccc(Cl)cn2)c(C)c1C,12.1
9,COc1ccc2c(C)cc3nncn3c2c1,10.4
10,O=C(CCCn1c(=O)[nH]c2ccccc2c1=O)N1CCN(c2ccccn2)CC1,5.25
11,NS(=O)(=O)c1ccc(CCNC(=O)CN2CCN(c3cccc(Cl)c3)CC2)cc1,-27.6
12,CCCCNC(=O)CSc1nc(O)cc(=O)n1C1CCCC1,4.18
13,C/C(=N\NC(=O)CSc1nc2nc(C)cc(C)n2n1)c1ccccc1,-15.5
14,COc1cc(OC)c(C2C(C#N)=C(C)NC(C)=C2C#N)c(C(=O)O)c1,11.1
15,CCOc1ccccc1/C=C(/C#N)C(N)=O,7.14
16,C/C=C1\COC(C(=O)NCc2ccccc2)(C(F)(F)F)C=C1C=C(C)C (centres unmarked),-1.28
17,Cc1cccc(-n2cnc(C(=O)N/N=C/c3ccccc3)c2)n1,1.48
18,Cc1cc(C(=O)O)ccc1-c1ccc(/C=C2\SC(=O)N(CC(=O)Nc3ccc4c(c3)OCO4)C2=O)o1,18
19,CSc1ccc(/C=N\Nc2nncn2N)cc1.Cl,10.9
20,COc1ccc(OCCN(C)CC(=O)Nc2c(C)cccc2C)cc1.O=C(O)C(=O)O,2.96
21,CCc1nnc(NC(=O)CN2C(=O)NC3(CC(C)CC(C)(C)C3)C2=O)s1 (centres unmarked),7.29
22,CCc1ccc2nc(N(CCCN(C)C)C(=O)c3ccc(S(=O)(=O)N4CCCc5ccccc54)cc3)sc2c1.Cl,7.81
23,CC(=O)NCCc1nc(-c2ccc(Cl)cc2)no1,10.8

row,SMILES,"hERG current change (%, negative = inhibition) at 10uM [%]"
1,O=C(COC(=O)c1c2ccccc2cc2ccccc12)Nc1ncc(C(F)(F)F)cc1Cl,6.05
2,COc1ccc(-c2nc(C)ncc2-c2ccc(Cl)cc2)c(O)c1,0.00268
3,COCc1c(C(=O)OCC(=O)N2c3ccccc3CC2C)oc2ccccc12 (centres unmarked),4.17
4,Cc1cc(=O)oc2cc(OCC(=O)N3CCN(C(C)c4ccccc4)CC3)c(Cl)cc12 (centres unmarked),-35.1
5,O=C(NCCCCc1ccccc1)c1ccc(F)cc1,-8.4
6,C/C(=N/NC(=O)c1ccc(Br)o1)C(C)C,-1.43
7,COc1ccc(C/C(=N\O)c2ccc(OC)cc2)cc1,1.9
8,CN(CC(=O)Nc1ccccc1C(F)(F)F)C(=O)CN1C(=O)C2CCCCC2C1=O (centres unmarked),9.26
9,CCOC(=O)c1c(C)n(C)c2ccc(OC)c(NC(=O)CN3CCC4(CC3)OCCO4)c12,-1.29
10,S=C(NCc1cccs1)Nc1ccc(Br)cc1Cl,-2.53
11,O=C(c1cc(-c2ccncc2)nc2ccc(Cl)cc12)N1CCN(C(=O)C2CCCO2)CC1 (centres unmarked),-9.46
12,CCCCC(=O)Nc1nnc(C2=COCCO2)o1,17.3
13,CCOC(=O)CC(=O)CSc1nc2ccc(OC)cc2cc1C,29.7
14,O=C1SC(SCc2ccccc2Cl)=N/C1=C\c1ccc(C(=O)O)cc1,6.42
15,CCOc1ccc(/C=C/C(=O)N(CC)CC(=O)NCc2cccs2)cc1OC,-28.3
16,NC(=S)Nc1ccc(Cl)cc1Cl,14
17,CS(=O)(=O)c1ccc(Cl)c(NC(=O)CCl)c1,33.7
18,OC(CN1CC=C(c2ccccc2)CC1)c1ccccc1 (centres unmarked),-33
19,O=S(=O)(NCCN1CCOCC1)c1cc(Cl)ccc1Cl,3.34
20,Cc1nc(-c2cccnc2)sc1C(=O)N/N=C/c1ccccc1Cl,-75.5
21,O=C(CCS(=O)(=O)c1ccccc1)Nc1ccc2c(c1)OCO2,4.28
22,CC1Cc2ccccc2N1C(=O)CSc1nnnn1C1CCCC1 (centres unmarked),-8.36
23,CN1CCN(c2ccc(NC(=O)CSc3ccccc3)cc2F)CC1,-68.4

row,SMILES,"hERG current change (%, negative = inhibition) at 10uM [%]"
1,Cc1cc(N2CCN(c3ccccc3)CC2)n2c(n1)nc1ccccc12,-68.7
2,O=C(COC(=O)CCc1ccccc1)NC12CC3CC(CC(C3)C1)C2,6.43
3,COc1ccc(NS(=O)(=O)c2ccc3c(c2)OCCO3)cc1OC,19.3
4,CCCCn1c(SCc2c(C)noc2C)nc2cc(S(N)(=O)=O)ccc21,-43.1
5,O=C(Nc1nnc(C2=COCCO2)o1)c1ccc(S(=O)(=O)N2CCOCC2)cc1,24.3
6,Cc1cc(Br)ccc1OCC(=O)NNC(=O)c1cnccn1,14.1
7,CC1CCSP(=O)(Oc2ccccc2)O1 (centres unmarked),0.524
8,Cc1nc2sc(C(c3cccc(F)c3)N3CCC(O)CC3)c(O)n2n1 (centres unmarked),-2.49
9,COC(=O)C(NC(=O)c1ccccc1Cl)(Nc1ncc(S(=O)(=O)c2ccc([N+](=O)[O-])cc2)s1)C(F)(F)F (centres unmarked),-32.8
10,Cc1cc(C)cc(NS(=O)(=O)c2ccc3[nH]cc(C(=O)NCc4ccco4)c(=O)c3c2)c1,-16.6
11,CCNC(=S)Nc1cc2oc3ccccc3c2cc1OC,10.7
12,COc1ccccc1NC(=O)C/C(N)=N/O,2.67
13,CCOCCCNC(=O)Cn1cnc2c(cnn2-c2ccc(F)cc2)c1=O,-5.6
14,COc1cc(S(=O)(=O)n2ccc(C)n2)c(OC)cc1Cl,-8.65
15,CCN(CC)C(=O)c1sc(NC(=O)C(Sc2ccccc2)c2ccccc2)c(C(=O)OC(C)C)c1C (centres unmarked),15.9
16,COc1ccc(C)cc1S(=O)(=O)N1CCN(C(=O)c2ncoc2-c2cccc(C)c2)CC1,-25.1
17,Cc1cc2c(cc1C)C(c1ccccc1Br)CC(=O)N2 (centres unmarked),19.6
18,CS(=O)(=O)N1CCC(Oc2ccccc2C(=O)NC(C2CC2)C2CC2)CC1,-37.1
19,COc1ccc(C(CNC(=O)c2cc3ccccc3o2)N2CCCC2)cc1 (centres unmarked),-38.6
20,COc1ccc(C(=O)C2CCCN(Cc3cccn3-c3ccccn3)C2)cc1F (centres unmarked),-78.5
